Experimental data from the supplement of paper PMC8728848.
This is one part of the list.

Assays:
Assay in all cases: glycan array binding signal (z-score within array); higher = stronger binding
Details in all cases: glycan notation: IUPAC condensed, linker removed
[1] = biological target: Gal(b1-4)GlcNAc(b1-6)GalNAc
In short: (§1)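 The binding signal is a Z-score computed within each array and averaged over linkers. Arrays of the same protein sequence at different concentrations or buffers were also averaged together. Data originate from 3228 arrays in the Consortium for Functional Glycomics database, kept only where the protein sequence was available.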

[2] = biological target: Gal(b1-4)GlcNAc(b1-6)[Gal(b1-3)]GalNAc
In short: as §1

[3] = biological target: Gal(b1-4)GlcNAc(b1-6)[Gal(b1-4)GlcNAc(b1-3)]GalNAc
In short: as §1

Gal(b1-4)GlcNAc6P = biological target: Gal(b1-4)GlcNAc6P
In short: as §1

Gal(b1-6)Gal = biological target: Gal(b1-6)Gal
In short: as §1

Gal3S(b1-3)GalNAc = biological target: Gal3S(b1-3)GalNAc
In short: as §1

Gal3S(b1-3)GlcNAc = biological target: Gal3S(b1-3)GlcNAc
In short: as §1

[4] = biological target: Gal3S(b1-3)[Fuc(a1-4)]GlcNAc
In short: as §1

Gal3S(b1-4)Glc = biological target: Gal3S(b1-4)Glc
In short: as §1

Gal3S(b1-4)Glc6S = biological target: Gal3S(b1-4)Glc6S
In short: as §1

Gal3S(b1-4)GlcNAc = biological target: Gal3S(b1-4)GlcNAc
In short: as §1

[5] = biological target: Gal3S(b1-4)[Fuc(a1-3)]Glc6S
In short: as §1

[6] = biological target: Gal3S(b1-4)[Fuc(a1-3)]GlcNAc
In short: as §1

[7] = biological target: Gal3S(b1-4)[Fuc(a1-3)]GlcNAc6S
In short: as §1

Gal3S4S(b1-4)GlcNAc = biological target: Gal3S4S(b1-4)GlcNAc
In short: as §1

Gal3S6S(b1-4)GlcNAc = biological target: Gal3S6S(b1-4)GlcNAc
In short: as §1

Gal3S6S(b1-4)GlcNAc6S = biological target: Gal3S6S(b1-4)GlcNAc6S
In short: as §1

Gal4S(b1-4)GlcNAc = biological target: Gal4S(b1-4)GlcNAc
In short: as §1

Gal4S6S(b1-4)GlcNAc = biological target: Gal4S6S(b1-4)GlcNAc
In short: as §1

Gal6P(b1-4)GlcNAc = biological target: Gal6P(b1-4)GlcNAc
In short: as §1

Gal6S(b1-3)GlcNAc = biological target: Gal6S(b1-3)GlcNAc
In short: as §1

Gal6S(b1-3)GlcNAc6S = biological target: Gal6S(b1-3)GlcNAc6S
In short: as §1

Gal6S(b1-4)Glc = biological target: Gal6S(b1-4)Glc
In short: as §1

Gal6S(b1-4)Glc6S = biological target: Gal6S(b1-4)Glc6S
In short: as §1

Gal6S(b1-4)GlcNAc = biological target: Gal6S(b1-4)GlcNAc
In short: as §1

Gal6S(b1-4)GlcNAc6S = biological target: Gal6S(b1-4)GlcNAc6S
In short: as §1

GalNAc(a1-3)Gal = biological target: GalNAc(a1-3)Gal
In short: as §1

GalNAc(a1-3)GalNAc = biological target: GalNAc(a1-3)GalNAc
In short: as §1

[8] = biological target: GalNAc(a1-3)GalNAc(b1-3)Gal(a1-4)Gal(b1-4)Glc
In short: as §1

[9] = biological target: GalNAc(a1-3)GalNAc(b1-3)Gal(a1-4)Gal(b1-4)GlcNAc
In short: as §1

GalNAc(b1-3)Gal = biological target: GalNAc(b1-3)Gal
In short: as §1

[10] = biological target: GalNAc(b1-3)Gal(a1-4)Gal(b1-4)GlcNAc
In short: as §1

[11] = biological target: GalNAc(b1-3)Gal(a1-4)Gal(b1-4)GlcNAc(b1-3)Gal(b1-4)Glc
In short: as §1

[12] = biological target: GalNAc(b1-3)Gal(a1-6)Gal(b1-4)Glc
In short: as §1

GalNAc(b1-3)GalNAc = biological target: GalNAc(b1-3)GalNAc
In short: as §1

GalNAc(b1-3)GlcNAc = biological target: GalNAc(b1-3)GlcNAc
In short: as §1

GalNAc(b1-4)Gal(b1-4)Glc = biological target: GalNAc(b1-4)Gal(b1-4)Glc
In short: as §1

GalNAc(b1-4)GlcNAc = biological target: GalNAc(b1-4)GlcNAc
In short: as §1

B1: OGAN (protein)
chain: MVQKESQATLEERESELSSNPAASAGASLEPPAAPAPGEDNPAGAGGAAVAGAAGGARRFLCGVVEGFYGRPWVMEQRKELFRRLQKWELNTYLYAPKDDYKHRMFWREMYSVEEAEQLMTLISAAREYEIEFIYAISPGLDITFSNPKEVSTLKRKLDQVSQFGCRSFALLFNDIDHNMCAADKEVFSSFAHAQVSITNEIYQYLGEPETFLFCPTEYCGTFCYPNVSQSPYLRTVGEKLLPGIEVLWTGPKVVSKEIPVESIEEVSKIIKRAPVIWDNIHANDYDQKRLFLGPYKGRSTELIPRLKGVLTNPNCEFEANYVAIHTLATWYKSNMNGVRKDVVMTDSEDSTVSIQIKLENEGSDEDIETDVLYSPQMALKLALTEWLQEFGVPHQY
glycan array binding signal (z-score) [1]: -0.053 | glycan array binding signal (z-score) [2]: -0.055 | glycan array binding signal (z-score) [3]: -0.074 | glycan array binding signal (z-score) (Gal(b1-4)GlcNAc6P): -0.092 | glycan array binding signal (z-score) (Gal(b1-6)Gal): -0.036 | glycan array binding signal (z-score) (Gal3S(b1-3)GalNAc): -0.091 | glycan array binding signal (z-score) (Gal3S(b1-3)GlcNAc): -0.032 | glycan array binding signal (z-score) [4]: 0.008 | glycan array binding signal (z-score) (Gal3S(b1-4)Glc): -0.039 | glycan array binding signal (z-score) (Gal3S(b1-4)Glc6S): -0.05 | glycan array binding signal (z-score) (Gal3S(b1-4)GlcNAc): -0.067 | glycan array binding signal (z-score) [5]: 0.034 | glycan array binding signal (z-score) [6]: -0.06 | glycan array binding signal (z-score) [7]: -0.046 | glycan array binding signal (z-score) (Gal3S4S(b1-4)GlcNAc): -0.052 | glycan array binding signal (z-score) (Gal3S6S(b1-4)GlcNAc): -0.035 | glycan array binding signal (z-score) (Gal3S6S(b1-4)GlcNAc6S): -0.017 | glycan array binding signal (z-score) (Gal4S(b1-4)GlcNAc): -0.099 | glycan array binding signal (z-score) (Gal4S6S(b1-4)GlcNAc): -0.03 | glycan array binding signal (z-score) (Gal6P(b1-4)GlcNAc): -0.033 | glycan array binding signal (z-score) (Gal6S(b1-3)GlcNAc): 0.014 | glycan array binding signal (z-score) (Gal6S(b1-3)GlcNAc6S): -0.021 | glycan array binding signal (z-score) (Gal6S(b1-4)Glc): -0.069 | glycan array binding signal (z-score) (Gal6S(b1-4)Glc6S): -0.048 | glycan array binding signal (z-score) (Gal6S(b1-4)GlcNAc): -0.057 | glycan array binding signal (z-score) (Gal6S(b1-4)GlcNAc6S): -0.066 | glycan array binding signal (z-score) (GalNAc(a1-3)Gal): -0.051 | glycan array binding signal (z-score) (GalNAc(a1-3)GalNAc): -0.003 | glycan array binding signal (z-score) [8]: -0.085 | glycan array binding signal (z-score) [9]: -0.047 | glycan array binding signal (z-score) (GalNAc(b1-3)Gal): -0.045 | glycan array binding signal (z-score) [10]: -0.044 | glycan array binding signal (z-score) [11]: -0.089 | glycan array binding signal (z-score) [12]: -0.058 | glycan array binding signal (z-score) (GalNAc(b1-3)GalNAc): -0.059 | glycan array binding signal (z-score) (GalNAc(b1-3)GlcNAc): -0.04 | glycan array binding signal (z-score) (GalNAc(b1-4)Gal(b1-4)Glc): -0.035 | glycan array binding signal (z-score) (GalNAc(b1-4)GlcNAc): -0.05
